Test results reported in the supplement of paper PMC4967469.
The IC50 comes from the fitted curve, where viability falls to half of the control; a fit beyond the top or the lowest dose is shown as a bound at that dose. AUC, from the same fit, is the share of area under the viability curve across the 256-fold dose range; it is 1 without any effect and falls as sensitivity rises. For some of these results: Any top dose called inferred was calculated from the reported fits. For some of these results: An entry number marks a drug with two screens in the source, which often give different values.

Key:
Assay in all cases: Viability of human cancer cell lines after 72 h of drug (GDSC screen)
PI-103 = compound: Oc1cccc(-c2nc(N3CCOCC3)c3oc4ncccc4c3n2)c1 [PI-103]; settings: top dose 10.24 µM
Protocol: (§1)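 Human cancer cell lines in 384-well plates, medium with 10% serum, drug for 72 h over a 256-fold dose range (nine 2-fold or five 4-fold steps up to the top dose). Adherent lines were fixed and stained with the nucleic acid dye Syto60, suspension lines read with resazurin; signal relative to control wells, capped at 0 and 100%. One two-parameter sigmoid per drug and line, fitted in a mixed model over all curves with the slope shared within a line.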

SB-505124 = compound: Cc1cccc(-c2[nH]c(C(C)(C)C)nc2-c2ccc3c(c2)OCO3)n1 [SB-505124]; settings: top dose 10 µM; top dose inferred
Protocol: as §1

Tretinoin = compound: CC1=C(/C=C/C(C)=C/C=C/C(C)=C/C(=O)O)C(C)(C)CCC1 [Tretinoin]; settings: top dose 10 µM; top dose inferred
Protocol: as §1

UNC0638 = compound: COc1cc2c(NC3CCN(C(C)C)CC3)nc(C3CCCCC3)nc2cc1OCCCN1CCCC1 [UNC0638]
Protocol: as §1

GSK690693 = compound: CCn1c(-c2nonc2N)nc2c(C#CC(C)(C)O)ncc(OC[C@H]3CCCNC3)c21 [GSK690693]; settings: top dose 10.24 µM; top dose inferred
Protocol: as §1

BX-795 = compound: O=C(NCCCNc1nc(Nc2cccc(NC(=O)N3CCCC3)c2)ncc1I)c1cccs1 [BX-795]; settings: top dose 5 µM; top dose inferred
Protocol: as §1

[1] = top dose 20 µM, screen: GDSC drug entry 1236, top dose inferred
[2] = top dose 40 µM, screen: GDSC drug entry 245

Cell Line | AUC (PI-103) | IC50 (PI-103) [µM] | AUC (SB-505124) | IC50 (SB-505124) [µM] | AUC (Tretinoin) | IC50 (Tretinoin) [µM] | AUC (UNC0638; [1]) | IC50 (UNC0638; [1]) [µM] | AUC (UNC0638; [2]) | IC50 (UNC0638; [2]) [µM] | AUC (GSK690693) | IC50 (GSK690693) [µM] | AUC (BX-795) | IC50 (BX-795) [µM]
G-361 (melanoma, adherent) | 0.98 | > 10.2 | 0.961 | > 10 | 0.988 | > 10 | 0.824 | 11.3 | 0.648 | 6.31 | 0.988 | > 10.2 | 0.945 | > 5
G-401 (kidney, adherent) | 0.458 | 0.487 | 0.948 | > 10 | 0.959 | > 10 | 0.811 | 11.9 | 0.763 | 15.7 | 0.89 | > 10.2 | 0.813 | 3.04
G-402 (soft tissue, adherent) | 0.45 | 0.448 | 0.789 | 6.11 | 0.888 | > 10 | 0.718 | 6.44 | 0.724 | 13.6 | 0.935 | > 10.2 | 0.747 | 2.08
GMS-10 (glioma, adherent) | 0.926 | > 10.2 | 0.987 | > 10 | 0.977 | > 10 | 0.903 | > 20 | 0.887 | > 40 | 0.988 | > 10.2 | 0.852 | 3.8
H4 (glioma, adherent) | 0.68 | 2.03 | 0.985 | > 10 | 0.965 | > 10 | 0.822 | 11.5 | 0.848 | 29.1 | 0.943 | > 10.2 | 0.691 | 1.07
H290 (mesothelioma, adherent) | 0.923 | > 10.2 | 0.962 | > 10 | 0.989 | > 10 | 0.82 | 10.2 |  |  | 0.989 | > 10.2 | 0.855 | 3.47
H513 (mesothelioma, semi-adherent) | 0.807 | 6.66 | 0.984 | > 10 | 0.985 | > 10 | 0.892 | > 20 | 0.924 | > 40 | 0.984 | > 10.2 | 0.968 | > 5
H2369 (mesothelioma, adherent) | 0.979 | > 10.2 | 0.979 | > 10 | 0.98 | > 10 | 0.85 | 15.9 | 0.792 | 18.8 | 0.982 | > 10.2 | 0.93 | > 5
H2373 (mesothelioma, adherent) | 0.799 | 6.45 | 0.962 | > 10 | 0.963 | > 10 | 0.98 | > 20 | 0.847 | > 40 | 0.952 | > 10.2 | 0.885 | > 5
H2461 (mesothelioma, adherent) | 0.979 | > 10.2 | 0.951 | > 10 | 0.983 | > 10 | 0.714 | 5.93 | 0.779 | 20.7 | 0.983 | > 10.2 | 0.922 | > 5
H2595 (mesothelioma, adherent) | 0.944 | > 10.2 | 0.948 | > 10 | 0.934 | > 10 | 0.85 | > 20 | 0.72 | 13.6 | 0.963 | > 10.2 | 0.785 | 3.12
H2731 (mesothelioma, adherent) | 0.846 | 9.16 | 0.96 | > 10 | 0.971 | > 10 | 0.798 | 11.1 | 0.425 | 1.52 | 0.944 | > 10.2 | 0.864 | > 5
H2795 (mesothelioma, adherent) | 0.848 | 7.48 | 0.986 | > 10 | 0.75 | 3.22 | 0.855 | 15.6 | 0.714 | 9.94 | 0.987 | > 10.2 | 0.862 | 4.2
H2869 (mesothelioma, adherent) | 0.893 | > 10.2 | 0.982 | > 10 | 0.984 | > 10 | 0.887 | > 20 | 0.803 | 25.7 | 0.925 | > 10.2 | 0.946 | > 5
H3118 (head and neck, adherent) | 0.48 | 0.56 | 0.955 | > 10 | 0.847 | 8.41 | 0.633 | 3.01 | 0.749 | 14 | 0.979 | > 10.2 | 0.885 | > 5
H3255 (lung adenocarcinoma, adherent) | 0.855 | > 10.2 | 0.975 | > 10 | 0.963 | > 10 | 0.843 | 18.4 | 0.852 | > 40 | 0.969 | > 10.2 | 0.916 | > 5
HARA (lung squamous cell carcinoma, adherent) | 0.334 | 0.203 | 0.981 | > 10 | 0.943 | > 10 | 0.832 | 15.9 | 0.677 | 8.54 | 0.85 | 9.85 | 0.837 | 4.19
HCC38 (breast, adherent) | 0.565 | 0.978 | 0.898 | > 10 | 0.986 | > 10 | 0.914 | > 20 | 0.777 | 17.5 | 0.977 | > 10.2 | 0.908 | > 5
HCC1143 (breast, adherent) | 0.766 | 5.31 | 0.969 | > 10 | 0.98 | > 10 | 0.758 | 9.62 | 0.937 | > 40 | 0.967 | > 10.2 | 0.882 | > 5
HCC1395 (breast, adherent) | 0.868 | > 10.2 | 0.971 | > 10 | 0.984 | > 10 | 0.728 | 6.44 | 0.665 | 7.92 | 0.948 | > 10.2 | 0.951 | > 5

Cell Line | AUC (PI-103) | IC50 (PI-103) [µM] | AUC (SB-505124) | IC50 (SB-505124) [µM] | AUC (Tretinoin) | IC50 (Tretinoin) [µM] | AUC (UNC0638; [1]) | IC50 (UNC0638; [1]) [µM] | AUC (UNC0638; [2]) | IC50 (UNC0638; [2]) [µM] | AUC (GSK690693) | IC50 (GSK690693) [µM] | AUC (BX-795) | IC50 (BX-795) [µM]
HCC1419 (breast, adherent) | 0.715 | 3.39 | 0.98 | > 10 | 0.801 | 7.48 | 0.823 | 19.2 | 0.829 | > 40 | 0.885 | > 10.2 | 0.956 | > 5
HCC1428 (breast, adherent) | 0.854 | 9.25 | 0.952 | > 10 | 0.879 | > 10 | 0.848 | 17.1 | 0.795 | 20.6 | 0.988 | > 10.2 | 0.97 | > 5
HCC1500 (breast, adherent) | 0.618 | 1.37 | 0.961 | > 10 | 0.896 | > 10 | 0.79 | 9.26 | 0.703 | 9.56 | 0.958 | > 10.2 | 0.978 | > 5
HCC1569 (breast, adherent) | 0.332 | 0.186 | 0.93 | > 10 | 0.949 | > 10 | 0.774 | 10.6 | 0.792 | 25.3 | 0.724 | 3.47 | 0.927 | > 5
HCC1937 (breast, adherent) | 0.615 | 1.39 | 0.983 | > 10 | 0.982 | > 10 | 0.859 | > 20 | 0.778 | 18.8 | 0.871 | > 10.2 | 0.973 | > 5
HCC1954 (breast, adherent) | 0.938 | > 10.2 | 0.971 | > 10 | 0.969 | > 10 | 0.846 | 18.3 | 0.843 | 35.6 | 0.656 | 1.87 | 0.944 | > 5
HCC-15 (lung squamous cell carcinoma, adherent) | 0.868 | > 10.2 | 0.958 | > 10 | 0.914 | > 10 | 0.838 | 19.5 | 0.788 | 23.1 | 0.963 | > 10.2 | 0.763 | 2.3
HCC-44 (lung adenocarcinoma, adherent) | 0.503 | 0.653 | 0.98 | > 10 | 0.986 | > 10 | 0.779 | 7.99 | 0.605 | 4.82 | 0.951 | > 10.2 | 0.684 | 1.01
HCC-56 (large intestine, adherent) | 0.946 | > 10.2 | 0.976 | > 10 | 0.985 | > 10 | 0.856 | 16.8 | 0.702 | 9.39 | 0.987 | > 10.2 | 0.93 | > 5
HCC-78 (lung adenocarcinoma, adherent) | 0.282 | 0.137 | 0.981 | > 10 | 0.976 | > 10 | 0.773 | 9.19 | 0.736 | 13.5 | 0.884 | > 10.2 | 0.896 | > 5
HCC-827 (lung adenocarcinoma, adherent) | 0.631 | 1.56 | 0.979 | > 10 | 0.913 | > 10 | 0.941 | > 20 | 0.981 | > 40 | 0.949 | > 10.2 | 0.922 | > 5
HCT-15 (large intestine, adherent) | 0.541 | 0.836 | 0.985 | > 10 | 0.987 | > 10 | 0.985 | > 20 | 0.801 | 20.9 | 0.974 | > 10.2 | 0.85 | 4.17
HDQ-P1 (breast, adherent) | 0.785 | 5.32 | 0.964 | > 10 | 0.985 | > 10 | 0.983 | > 20 | 0.733 | 13.4 | 0.968 | > 10.2 | 0.955 | > 5
HEC-1 (endometrium, adherent) | 0.953 | > 10.2 | 0.986 | > 10 | 0.982 | > 10 | 0.909 | > 20 | 0.926 | > 40 | 0.989 | > 10.2 | 0.839 | 3.24
HN (head and neck, adherent) | 0.966 | > 10.2 | 0.971 | > 10 | 0.952 | > 10 | 0.794 | 8.59 | 0.989 | > 40 | 0.983 | > 10.2 | 0.801 | 2.27
HO-1-u-1 (head and neck, adherent) | 0.769 | 3.72 | 0.95 | > 10 | 0.872 | 8.8 | 0.87 | 17.4 | 0.84 | 25.9 | 0.897 | > 10.2 | 0.932 | > 5
HOS (osteosarcoma, adherent) | 0.974 | > 10.2 | 0.979 | > 10 | 0.963 | > 10 | 0.988 | > 20 | 0.988 | > 40 | 0.992 | > 10.2 | 0.761 | 1.51
HSC-2 (head and neck, adherent) | 0.691 | 2.1 | 0.885 | 9.46 | 0.976 | > 10 | 0.972 | > 20 | 0.981 | > 40 | 0.987 | > 10.2 | 0.919 | > 5
HT55 (large intestine, adherent) | 0.99 | > 10.2 | 0.99 | > 10 | 0.99 | > 10 | 0.989 | > 20 | 0.92 | > 40 | 0.99 | > 10.2 | 0.985 | > 5
